Data on 47 sequences can be found in article PMC5892938.

The list shows a part of the results. At the low end of the ranking the order means little.

The experiment addresses GST-SBP-SLBP (stem-loop binding protein) (UniProt Q14493). The experiment in a line: targeted RNA Bind-n-Seq.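 Note: DESeq read counts versus GST-SBP nonspecific binding control pulldown.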 The note with it: RBNS binding buffer: 25 mM Tris pH 7.5, 150 mM KCl, 3 mM MgCl2, 0.1% Tween, 0.5 mg/mL BSA, 1 mM DTT; 27 nM protein, 750 pM RNA pool; temperature not stated; high values mean tight binding.
For the sequence “GGUCACGUCUCAAUCAACUCAAAAGAGGGGGGGAAAACCCCUUUGCCCUCGGAAUCAACAGCUCGCAGUCAAG”, the binding signal (log2 fold change) amounted to 0.218.

On to “GGUCACGUCUCAAUCAACUCUUCUUCCAGGGAAAGCCCUGGCAUGUUCAACAGCUCGCAGUCAAG”, for which the binding signal (log2 fold change) is 0.213.

Regarding “GGUCACGUCUCAAUCAACUCAACUCCAGGAGUUUACUCCUGUUUACUCAACAGCUCGCAGUCAAG”, the binding signal (log2 fold change) was -0.063.

As to “GGUCACGUCUCAAUCAACUCAUCUCCAGGAGUUUGCUCCUGUAUUUUCAACAGCUCGCAGUCAAG”, the binding signal (log2 fold change) is -0.0825.

On to “GGUCACGUCUCAAUCAACUCAUUUUCCAGGGAAACCCCUGGCUAAUUCAACAGCUCGCAGUCAAG”, for which the binding signal (log2 fold change) stood at 0.348.

In the case of “GGUCACGUCUCAAUCAACUCUUCCUCCAGGGAAACCCCUGGCUAAUUCAACAGCUCGCAGUCAAG”, the binding signal (log2 fold change) was found to be 0.0942.

Regarding “GGUCACGUCUCAAUCAACUCUUCUUCCAGGGAAACCCCUGGCAUGUUCAACAGCUCGCAGUCAAG”, the binding signal (log2 fold change) was -0.0424.

As for “GGUCACGUCUCAAUCAACUCAUUCUCAGGAGUUUUCUCCUGCAAAGUCAACAGCUCGCAGUCAAG”, the binding signal (log2 fold change) was 0.0273.

Turning to “GGUCACGUCUCAAUCAACUCAUUCCCAGGAGUUUCCUCCUGUUUUUUCAACAGCUCGCAGUCAAG”, the binding signal (log2 fold change) was -0.181.

For “GGUCACGUCUCAAUCAACUCUUUUUCCAGGGAAAGCCCUGGUUUAUUCAACAGCUCGCAGUCAAG”, the binding signal (log2 fold change) is -0.295.

Take “GGUCACGUCUCAAUCAACUCAAUUCCCAGGGAAAUCCCUGGCAUAUUCAACAGCUCGCAGUCAAG”: the binding signal (log2 fold change) worked out at 0.139.

For “GGUCACGUCUCAAUCAACUCAAUCUCCAGGGAAAGCCCUGGCAAUGUCAACAGCUCGCAGUCAAG”, the binding signal (log2 fold change) amounted to 0.309.

Turning to “GGUCACGUCUCAAUCAACUCAUCUUCAGGAGUUUGCUCCUGCUUAUUCAACAGCUCGCAGUCAAG”, the binding signal (log2 fold change) was 0.141.

Consider “GGUCACGUCUCAAUCAACUCUUUUCCCAGGGAAAACCCUGGUUAACUCAACAGCUCGCAGUCAAG”, for which the binding signal (log2 fold change) came out at 0.0544.

In the case of “GGUCACGUCUCAAUCAACUCAUCUUCCAGGGAAAACCCUGGUUAUUUCAACAGCUCGCAGUCAAG”, the binding signal (log2 fold change) was found to be 0.148.

“GGUCACGUCUCAAUCAACUCAGAAGAGGGGGGGAAAACCCCUUUACCCUCAACAUCAACAGCUCGCAGUCAAG”: the binding signal (log2 fold change) is -0.055.

Consider “GGUCACGUCUCAAUCAACUCAUUCUCCAGGGAAAACCCUGGUAAUUUCAACAGCUCGCAGUCAAG”, for which the binding signal (log2 fold change) was 0.25.

In the case of “GGUCACGUCUCAAUCAACUCUCUAGAGGGGGGGAAAACCCCUUUGCCCUCGAAUUCAACAGCUCGCAGUCAAG”, the binding signal (log2 fold change) was -0.0793.

For the sequence “GGUCACGUCUCAAUCAACUCUCUAGAGGGGGGGAAAACCCCUUUACCCUCCAUCUCAACAGCUCGCAGUCAAG”, the binding signal (log2 fold change) was -0.283.

On to “GGUCACGUCUCAAUCAACUCAACUCCAGGAGUUUUCUCCUGCAUACUCAACAGCUCGCAGUCAAG”, for which the binding signal (log2 fold change) amounted to 0.152.

“GGUCACGUCUCAAUCAACUCUAUCUCCAGGGAAACCCCUGGCAAACUCAACAGCUCGCAGUCAAG”: the binding signal (log2 fold change) is 0.323.

Consider “GGUCACGUCUCAAUCAACUCUUCUCCAGGAGUUUUCUCCUGUAAUGUCAACAGCUCGCAGUCAAG”, for which the binding signal (log2 fold change) amounted to 0.145.

With “GGUCACGUCUCAAUCAACUCAUUCUCCAGGGAAACCCCUGGUUAUCUCAACAGCUCGCAGUCAAG”, the binding signal (log2 fold change) turned out to be 0.156.

In the case of “GGUCACGUCUCAAUCAACUCAUCCCCAGGAGUUUACUCCUGCAUACUCAACAGCUCGCAGUCAAG”, the binding signal (log2 fold change) worked out at 0.295.

Regarding “GGUCACGUCUCAAUCAACUCAAUUUCAGGAGUUUACUCCUGUAUUUUCAACAGCUCGCAGUCAAG”, the binding signal (log2 fold change) came to 0.11.

“GGUCACGUCUCAAUCAACUCAUCGUCAGGAGUUUUCUCCUGUUUUUUCAACAGCUCGCAGUCAAG”: the binding signal (log2 fold change) came to 0.121.

Turning to “GGUCACGUCUCAAUCAACUCAAGUCCAGGAGUUUACUCCUGUAUAUUCAACAGCUCGCAGUCAAG”, the binding signal (log2 fold change) was -0.0523.

Take “GGUCACGUCUCAAUCAACUCCCAAGAGGGGGGGAAAACCCCUUUGCCCUCCUAAUCAACAGCUCGCAGUCAAG”: the binding signal (log2 fold change) was -0.133.

On to “GGUCACGUCUCAAUCAACUCUACUCCCAGGGAAACCCCUGGCAAUUUCAACAGCUCGCAGUCAAG”, for which the binding signal (log2 fold change) is 0.0963.

For the sequence “GGUCACGUCUCAAUCAACUCAAUCUCAGGAGUUUGCUCCUGUUAAUUCAACAGCUCGCAGUCAAG”, the binding signal (log2 fold change) was -0.28.

With “GGUCACGUCUCAAUCAACUCUACUUCAGGAGUUUUCUCCUGCUUACUCAACAGCUCGCAGUCAAG”, the binding signal (log2 fold change) was 0.089.

For “GGUCACGUCUCAAUCAACUCUCUAGAGGGGGGGAAAACCCCUUUACCCUCAACCUCAACAGCUCGCAGUCAAG”, the binding signal (log2 fold change) was -0.312.

As for “GGUCACGUCUCAAUCAACUCAUACGAGGGGGGGAAAACCCCUUUACCCUCAUCCUCAACAGCUCGCAGUCAAG”, the binding signal (log2 fold change) is -0.382.

With “GGUCACGUCUCAAUCAACUCAGUCUCCAGGGAAACCCCUGGCUUAUUCAACAGCUCGCAGUCAAG”, the binding signal (log2 fold change) was -0.151.

“GGUCACGUCUCAAUCAACUCUUUCUCCAGGGAAACCCCUGGUAAAUUCAACAGCUCGCAGUCAAG”: the binding signal (log2 fold change) was -0.0927.

Consider “GGUCACGUCUCAAUCAACUCUUUCUCCAGGGAAAGCCCUGGUAAACUCAACAGCUCGCAGUCAAG”, for which the binding signal (log2 fold change) was determined as 0.144.

As for “GGUCACGUCUCAAUCAACUCCCAAGAGGGGGGGAAAACCCCUUUGCCCUCACAAUCAACAGCUCGCAGUCAAG”, the binding signal (log2 fold change) amounted to 0.0924.

In the case of “GGUCACGUCUCAAUCAACUCUAUUUCAGGAGUUUUCUCCUGUUUUCUCAACAGCUCGCAGUCAAG”, the binding signal (log2 fold change) is -0.0697.

As to “GGUCACGUCUCAAUCAACUCAUUUUCAGGAGUUUCCUCCUGUAUUCUCAACAGCUCGCAGUCAAG”, the binding signal (log2 fold change) is 0.033.

Take “GGUCACGUCUCAAUCAACUCAUCUCCAGGAGUUUACUCCUGUAAUUUCAACAGCUCGCAGUCAAG”: the binding signal (log2 fold change) was -0.0734.

As to “GGUCACGUCUCAAUCAACUCCAUCGAGGGGGGGAAAACCCCUUUACCCUCUUUUUCAACAGCUCGCAGUCAAG”, the binding signal (log2 fold change) was -0.0509.

Regarding “GGUCACGUCUCAAUCAACUCAUUCUCCAGGGAAAACCCUGGCUUAUUCAACAGCUCGCAGUCAAG”, the binding signal (log2 fold change) is -0.0995.

With “GGUCACGUCUCAAUCAACUCAUUCCCAGGAGUUUGCUCCUGCAAUCUCAACAGCUCGCAGUCAAG”, the binding signal (log2 fold change) worked out at 0.182.

“GGUCACGUCUCAAUCAACUCAUUCCCCAGGGAAACCCCUGGUUUACUCAACAGCUCGCAGUCAAG”: the binding signal (log2 fold change) was -0.152.

Consider “GGUCACGUCUCAAUCAACUCUUUUUCCAGGGAAACCCCUGGCAUAUUCAACAGCUCGCAGUCAAG”, for which the binding signal (log2 fold change) came out at 0.215.

Regarding “GGUCACGUCUCAAUCAACUCCUUAGAGGGGGGGAAAACCCCUUUGCCCUCACUAUCAACAGCUCGCAGUCAAG”, the binding signal (log2 fold change) was -0.135.

Take “GGUCACGUCUCAAUCAACUCUUUUUCCAGGGAAAACCCUGGUAUUUUCAACAGCUCGCAGUCAAG”: the binding signal (log2 fold change) was -0.0283.
